# In PubChem BioAssay AID2101 (National Center for Advancing Translational Sciences (NCATS), 2009):
# In all, about 330,000 compounds went through this assay and about 300 (0.091%) were called active. Inconclusive means that the source gave no clear call. Such entries were picked first, then a sample of the others. Calls follow the shape of the dose curve; as a rule, active = well fitted inhibition curve with a large enough effect; inconclusive = small, poorly fitted or top-dose-only effect, or effect the other way, or another doubt; inactive = no such curve, though single readings can be large or run the other way. No potency is given beside an inconclusive call; the fits are too rough.
# Biological target: Lysosomal acid glucosylceramidase (Homo sapiens) (UniProt P04062)
# Assay: qHTS Assay for Inhibitors and Activators of N370S glucocerebrosidase as a Potential Chaperone Treatment of Gaucher Disease
# Settings: N370S GC spleen homogenate, 4MU-glucoside fluorescence; series mostly up to 59.4 µM
# Potency is read from the fitted curve at half-maximal effect.
row,SMILES,Potency
1,Cn1c(=O)c(C(=O)NC2CCCCCCC2)c(O)c2ccccc21,"inconclusive [inhibitor, full curve, poor fit]"
2,Cc1cc(NC(=O)NC(=O)c2ccccc2)no1,inactive
3,CC(C)(C)C(=O)c1cnc(Nc2ccccc2)s1,"inconclusive [activator, partial curve]"
4,CC(=O)Nc1ccc(S(=O)(=O)NCCSCc2ccco2)cc1,"inconclusive [inhibitor, single point]"
5,Cc1ccccc1OCC(=O)Nc1ccccc1CO,"inconclusive [inhibitor, single point]"
6,Cc1ccc(C2CC(=O)Nc3c2ccc2ccccc32)cc1[N+](=O)[O-] (stereo unspecified),"inconclusive [activator, single point]"
7,O=C(c1cc(C(=O)NCCc2ccccc2)c(=O)n(CCc2ccccc2)c1)c1cc(Cl)ccc1O,"inconclusive [activator, full curve, poor fit]"
8,O=[N+]([O-])c1cccc2c(Cl)ccnc12,"inconclusive [inhibitor, partial curve]"
9,C=CCn1cc(C(=O)NCc2ccc(Cl)cc2)c(=O)c2cc(S(=O)(=O)N(CC)CC)ccc21,"inconclusive [activator, single point]"
10,O=C(c1cccc(Oc2ccc([N+](=O)[O-])cc2)c1)N1CCOCC1,"inconclusive [activator, single point]"
11,Cc1ccc(NC(=O)c2cccc3cccnc23)cc1,"inconclusive [activator, single point]"
12,CC(C)COc1cccc(-c2cc(C(=O)Nc3ccon3)c3ccccc3n2)c1,"inconclusive [activator, single point]"
13,COC(=O)c1sc(SC)c(S(=O)(=O)C(C)C)c1N/N=C(\C#N)C(=O)c1ccccc1,"inconclusive [activator, partial curve, poor fit]"
14,CCOC(=O)C1CCN(S(=O)(=O)c2ccc(Cl)cc2OC)CC1,"inconclusive [inhibitor, partial curve]"
15,CC(=O)c1ccc(N2CCN(S(=O)(=O)c3ccc4c(c3)CC(=O)N4)CC2)cc1,inactive
16,CSCC[C@H](NC(=O)[C@H](CC(C)C)NC(=O)CNC(=O)[C@H](Cc1ccccc1)NC(=O)[C@H](Cc1ccccc1)NC(=O)[C@H](CCC(N)=O)NC(=O)[C@H](CCC(N)=O)NC(=O)[C@@H]1CCCN1C(=O)[C@H](CCCCN)NC(=O)[C@@H]1CCCN1C(=O)[C@@H](N)CCCN=C(N)N)C(N)=O,inactive
